The whole screen tested about 120,000 compounds, of which about 5,300 (4.4%) were called active. The shares of active, inactive and inconclusive entries below differ from those in the screen. Calls follow the shape of the dose curve; as a rule, active = well fitted inhibition curve with a large enough effect; inconclusive = small, poorly fitted or top-dose-only effect; inactive = no such curve, though single readings can be large or run the other way. A potency beside an inconclusive call is a rough fit, not a confirmed value.
Experiment: qHTS Primary assay for Inhibitors of Plasmodium falciparum Dd2 growth in vitro; also: nearly all actives have a fitted effect of over 65% in size
Conditions: P. falciparum Dd2 growth, SYBR Green, 72 h; series mostly up to 28.9 µM
In short: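 Readout: SYBR Green fluorescence, 485 nm excitation, 535 nm emission, after ~16 h lysis at 37C. Before that, Dd2-infected red cells (2.5% hematocrit) grew 72 h with compound, 29 uM top final concentration.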
Potency is read from the fitted curve at half-maximal effect; tags tell the direction and shape of the fitted curve.

SMILES | Potency
Cc1ccccc1N1CCN(C2CCCN(Cc3ccc(C#CC(C)(C)O)cc3)C2)CC1 (centres undefined) | inconclusive: 17.8 µM [inhibitor, single point]
C[C@]1(CO)[C@H]2Cc3sc(NC(=O)c4ccc(F)cc4)nc3[C@@H](CC(=O)Nc3ccccc3)[C@]2(C)CC[C@H]1O | inconclusive: 5.01 µM [inhibitor, partial curve, poor fit]
CC(=O)N1CCN(c2nc(-c3c(C)noc3C)cc3cc(CN(C)C)oc23)CC1 | active: 7.94 µM
COC(=O)CSc1ncc2c(n1)-c1ccccc1N(Cc1ccccc1C)S2(=O)=O | inactive
Cc1ccc(C(=O)N2CCC(n3cnnc3-c3ccccc3)CC2)cc1F | inconclusive: 17.8 µM [inhibitor, single point]
COCC(=O)N(C1CCOCC1)C1CCN(S(=O)(=O)c2ccccc2F)CC1 | inconclusive: 6.31 µM [inhibitor, partial curve, poor fit]
Cc1cccc(NC(=O)C2c3ccccc3C(=O)N(CC(C)C)C23CCCC3)n1 (centres undefined) | active: 3.55 µM
Cc1nccn1CCNC(=O)CCC[C@@H]1[C@H]2CCCN3CCC[C@@H](CN1Cc1ccccc1)[C@@H]23 | inconclusive: 4.47 µM [inhibitor, partial curve, poor fit]
O=C(NCc1ccccc1)c1cc2sccc2n1Cc1ccc(Cl)cc1 | inconclusive: 10 µM [inhibitor, single point]
CCCCSc1nc(-c2ccc(OC)cc2)ccc1C#N | inconclusive: 11.2 µM [inhibitor, single point]
CCOc1cccc(CN2CCC3(CC2)CN(C)CC3COC)c1 (centres undefined) | active: 4.47 µM
Cc1cnc(C(=O)N2CC(Oc3ccccc3-c3nc(C4CC4)no3)C2)cn1 | inconclusive: 17.8 µM [inhibitor, single point]
COC1CCC12CCN(C(=O)C1CC1)CC2 (centres undefined) | inactive
C=CCOC(=O)C1=C(C)N=C2SC=C(CC(=O)NCC3CC3)N2C1c1cccc(OC)c1OC (centres undefined) | inconclusive: 1 µM [inhibitor, partial curve, poor fit]
COc1ccc(C(=O)NCCc2noc(-c3cccnc3)n2)cn1 | inconclusive: 3.98 µM [inhibitor, single point]
CN(C(=O)c1ccc2c(c1)OCO2)C1CCc2nn(CC3CC3)c(=O)n2CC1 (centres undefined) | inactive
COc1ccc(CCNC(=O)c2nc(SCc3ccccc3F)ncc2Cl)cc1OC | inconclusive: 17.8 µM [inhibitor, single point]
COc1ccc(C(=O)N[C@@H]2C=C[C@@H](c3c(C)nn(Cc4ccccc4)c3C)C2)cc1 | inconclusive: 1.26 µM [inhibitor, partial curve, poor fit]
Cc1cnc(C2CC2)n1CCNS(=O)(=O)c1ccccc1Cl | inconclusive: 15.8 µM [inhibitor, single point]
CCc1ccc(-c2nc(SCC(=O)NCC3CCCO3)c(-c3ccc(C)cc3)[nH]2)cc1 (centres undefined) | inconclusive: 17.8 µM [inhibitor, single point]
Cc1cccc(C)c1NC(=O)Cn1c(=O)n(CCCS(=O)(=O)C2CCCCC2)c(=O)c2ccccc21 | inconclusive: 8.91 µM [inhibitor, partial curve]
O=C(NC1CCN(c2cc(-c3ccc(F)cc3)[nH]n2)C1)c1c[nH]c2ccccc12 (centres undefined) | inconclusive: 3.16 µM [inhibitor, full curve, poor fit]

SMILES | Potency
CC[C@H]1CN2CC[C@H]1C[C@@H]2CNCc1cccs1 | inconclusive: 7.08 µM [inhibitor, single point]
Cc1cccc(CN2CCCCCNC(=O)CC2c2ccccc2)c1 (centres undefined) | inconclusive: 10 µM [inhibitor, partial curve]
COc1ccc(-c2nnc(C[C@@H]3C[C@@H](C(C)C)[C@H](CNC(=O)c4cnccn4)C=C3C)o2)cc1 | inconclusive: 5.62 µM [inhibitor, partial curve, poor fit]
CN(C)C[C@@H]1CN(S(C)(=O)=O)C[C@H]1NC(=O)C1(c2ccccc2)CCCC1 | inconclusive: 3.98 µM [inhibitor, single point]
CCOc1ccc(C(=O)NCc2nc3cccnc3n2Cc2cccc(OC)c2)cc1 | inconclusive: 0.0079 µM [inhibitor, full curve, poor fit]
CN1C[C@H](O)C[C@H]1c1nnc2n1CCN(C(=O)CC1CCCC1)CC2 | inactive
COc1ccc2ccccc2c1CN1CCC2(CC1)[C@H](O)C[C@@H]2OCCN | inconclusive: 14.1 µM [inhibitor, partial curve, poor fit]
CNCC(=O)NC1CCCN(c2ccc(C(F)(F)F)cn2)C1 (centres undefined) | inconclusive: 11.2 µM [inhibitor, partial curve, poor fit]
COc1ccc(-c2noc(N3CCC(C(=O)N4CCN(c5ccccc5F)CC4)CC3)n2)cc1 | inconclusive: 7.94 µM [inhibitor, partial curve, poor fit]
COc1cc(CN2CCN(Cc3cnc(C)s3)CC2CCO)cc(OC)c1 (centres undefined) | inactive
COc1cc2c(C(=O)N3CCN(c4cccc(C(F)(F)F)c4)CC3)cn(CC(C)C)c(=O)c2cc1OC | active: 8.91 µM
CC(C)c1ccc(CNc2nc(-c3ccco3)nn2C(=O)c2ccc([N+](=O)[O-])cc2)cc1 | inconclusive: 11.2 µM [inhibitor, partial curve, poor fit]
COCc1cc(C)nc2sc3c(c12)NC(c1ccc(O)c(OC)c1)N(c1ccccc1)C3=O (centres undefined) | inactive
COc1cccc(CCC(=O)NCCn2ccn3nc(-c4cccc(OC)c4)cc3c2=O)c1 | inconclusive: 3.55 µM [inhibitor, partial curve, poor fit]
O=C(O)CCC(=O)N1Cc2ccccc2CC2(CCN(Cc3cccnc3)C2)C1 (centres undefined) | inconclusive: 12.6 µM [inhibitor, single point]
OCC1CN2CCCCC2CN1 (centres undefined) | inactive
O=C(NCC1CCOCC1)[C@@H]1C[C@@H](c2ccc(F)cc2)N(CCOc2ccccc2)C1 | inconclusive: 11.2 µM [inhibitor, partial curve, poor fit]
C[S+](=O)([O-])N1CCC2(CC1)C(=O)NN=C2c1ccccn1 | inactive
Cc1cccc(CNC(=O)c2cc3c(N4CCSCC4)nc(C)cn3n2)c1 | inconclusive: 1.12 µM [inhibitor, partial curve]
Cc1cccc(NC(=O)CCN2CCN(c3ccccc3F)CC2)c1 | inconclusive: 0.0447 µM [inhibitor, full curve, poor fit]
CCn1ccc2cc(C(=O)N3CCC(=O)N(CC4CC4)C(C(C)C)C3)ccc21 (centres undefined) | inconclusive: 7.08 µM [inhibitor, partial curve, poor fit]
O=C(NCCCN1CCCC1)c1ccc2c(c1)N(S(=O)(=O)c1ccccc1F)CC2 | inconclusive: 0.501 µM [inhibitor, full curve, poor fit]

SMILES | Potency
O=C(CC[C@@H]1CNC(=O)[C@@H]2C[C@H](NCc3ccccc3)CN12)NCc1ccc(F)cc1 | inactive
CCCn1c(C)cnc1CC1CCCN(S(=O)(=O)c2cc(OC)ccc2OC)C1 (centres undefined) | active: 1.26 µM
CCC(=O)N1CCCC(Cc2nncn2-c2ccccc2)C1 (centres undefined) | inactive
O=C(CCC[C@@H]1[C@H]2CCCN3CCC[C@@H](CN1C(=O)c1cccnc1)[C@@H]23)NCc1ccccn1 | inactive
CCOC(=O)C1(Cc2ccccc2Cl)CCN(Cc2cccc3c2OCO3)CC1 | active: 8.91 µM
CC(C)CCN1CCC(N2CCN(C(=O)Cc3ccccc3F)CC2)C1=O (centres undefined) | inconclusive: 17.8 µM [inhibitor, single point]
Cc1ccc(-c2nc(CNC(=O)[C@@H](N)[C@@H](C)O)[nH]c2-c2ccccn2)cc1 | inconclusive: 2.51 µM [inhibitor, single point]
Cc1cccc(C(=O)N[C@@H]2CN(c3ncccn3)C[C@H]2CO)n1 | inconclusive: 3.55 µM [inhibitor, single point]
CCCN1CCN(c2cc3c(cc2F)c(=O)c(S(=O)(=O)c2ccc(CC)cc2)cn3CC)CC1 | active: 10 µM
COc1ccc2[nH]c(C[C@@H]3C[C@@H](C(C)C)[C@H](CNCc4cccnc4)C=C3C)nc2n1 | inconclusive: 0.562 µM [inhibitor, full curve, poor fit]
CCn1ccc(C(=O)N2CCc3nnc([C@@H]4C[C@@H](O)CN4C)n3CC2)n1 | inactive
Cc1ccccc1CN1C[C@@H]2[C@H](C1)N(Cc1ccccc1)C(=O)C(C)(C)[S+]2(=O)[O-] | inactive
O=S(=O)(c1cccc(F)c1)N1CC[C@@H]2COCCN(Cc3ccccc3)[C@@H]2C1 | inconclusive: 10 µM [inhibitor, partial curve, poor fit]
CCCn1c(=N)n(CC(O)COc2ccccc2OC)c2ccccc21 (centres undefined) | inconclusive: 10 µM [inhibitor, single point]
O=C(NCc1cccnc1)[C@@H]1C[C@@H](c2ccc(F)cc2)N(Cc2ccccc2)C1 | inconclusive: 5.62 µM [inhibitor, partial curve]
CC(=O)N(C1CC1)C1CCOC2(CCN(C(=O)CCCc3ccccc3)CC2)C1 (centres undefined) | inactive
O=C(c1cccc(O)c1)N1CCc2c(n(CCOc3ccccc3)n(-c3ccccc3)c2=O)C1 | inconclusive: 17.8 µM [inhibitor, single point]
COc1cc(CNC(=O)c2nc3nc(-c4ccccc4)c(Cl)cc3n2C)cc(OC)c1 | active: 8.91 µM
CCc1ccccc1NC(=O)c1sc2nc(C)cc(COC)c2c1N | inactive
COc1ccccc1CNC(=O)C1CCCN(c2nnc(C)c3c(C)n(-c4ccccc4)nc23)C1 (centres undefined) | inconclusive: 6.31 µM [inhibitor, partial curve]
